From the RNAGym collection of RNA variant scans (doi:10.1073/pnas.2313332121)
This sample is rich in variants without activity.

B1: TPR 5TU (parent)
chain: GGAUCUUCUCGAUCUAACAAAAAAGACAAAUCUGCCACAAAGCUUGAGAGCAUCUUCGGAUGCAGAGGCGGCAGCCUUCGGUGGCGCGAUAGCGCCAACGUUCUCAACUAUGACACGCAAAACGCGUGCUCCGUUGAAUGGAGUUUAUCAUG

Variants of: B1
Test: polymerase ribozyme fitness, log enrichment relative to wild type (log ratio); higher = more active; in vitro selection for triplet polymerase activity
Outline: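 Genotype fitness is the logarithm of its enrichment divided by wild-type enrichment, using inverse-variance-weighted averages of replicates. That logarithm is base 2. Enrichment was measured by Illumina sequencing of input and output libraries from one triplicate in vitro selection round, with frozen incubation at −7 °C, on PCR-built, transcribed mutant libraries of each subunit of a heterodimeric triplet polymerase ribozyme, retaining genotypes with ≥10 input reads and ≥1 read per output.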

First: GGAUCUUCUCGAUCUAACAAAAAAGACAAAUCUGCCACAAAGCUUGAGAGUAUCUUCGGAUGCAGAGGCGGCACCCUUCGGUGGCGCGAUACCGCCAACGUUCUCAACUAUGACACGCAAAACGCGUGCUCCGUUGAAUGGAGUUUAUGAUG [C51U G74C G92C C149G]
Second: GGAUCUUCUCGAUCUAACAAAAAAGACAAAUCUGCCACAAAGCUUGAGAGUAUCUUCGGAUGCAGAGGCGGCAGCCUUCGGUGGCGCGAUAGCGCCAACGUUCUCAACUAUGACACGCAAAACGCGUGCUCCGUUGAAUUGAGUUUAUCAUG [C51U G140U]
The “polymerase ribozyme fitness (log ratio)” value of the first is lower: at most -4.2 for the first, -2.55 for the second.

First: GGAUCUUCUCGAUCUAACAAAAAAGACAAAUCUGCCACAAAGCUUGAGAGUAUCUUCGGAUGCAGAGGCGGCAGCCUUCGGUGGCCCGAUAGCGCCAACGUUCUCAACUAUGACACGCAAAACGCAUGCUCCGUUGAAUGGACUUUAUCAUG [C51U G86C G126A G143C]
Second: GGAUCUUCUCGAUCUAACAAAAAAGACAAAUCUGCCACAAAGCUUGAGAGUAUCUUCGGAUGCAGAGGCGGCAGCCUUCGGUGGCGCGAUAGCGUCAACGUUCGCAACUAUGACACGCAAAACGCGUGCUCCGUUGAAUGGAGAUUAUCAUG [C51U C95U U104G U144A]
The “polymerase ribozyme fitness (log ratio)” value of the first is lower: at most -4.2 for the first, -2.33 for the second.

GGAUCUUCUCGAUCUAACAAAAAAGACAAAUCUGCCACAAAGCUUGAGAGUAUCUUCGGAUGCAGAGGCGGCAGCCUUCGGUGGCGCGAUAGCGCCAACGUUCUCAAUUAUGACACGCAAAACGCGUGCUGCGUUGAGCGGAGUUUAUCAUG [C51U C108U C131G A138G U139C] and GGAUCUUCUCGAUCUAACAAAAAAGACAAAUCUGCCACAAAGCUUGAGAGUAUCUUCGCAUGCAGAGGCGGAAGCCUUCGGUGGCGCGAUAGCGCCAACGUUCUCAACUAUGACACGCAAAACGCGUGCUCCGUUGAAUGGAGUUUAUCAUG [C51U G59C C72A] cannot be ordered by “polymerase ribozyme fitness (log ratio)” value: at most -4.2 for the first, at most -4.2 for the second.

First: GGAUCUUCUCGAUCUAACAAAAAAGACAAAUCUGCCACAAAGCUUGAGAGUAUCUUCGGAUGCAGAGGCUGCAGCCUUCGGUGGCGCAAUAGCUCCAACGUUCUCCACUAUGACACGCAAAACGCGUGCUCCGUUGAAUGGAGUUUAUCAUG [C51U G70U G88A G94U A106C]
Second: GGAUCUUCUCGAUCUAACAAAAAAGACAAAUCUGCCACAAAGCUUGAGAGUAUCUUCGGAUGCAGAGGCGGCAGCCUUCGGUGACGCGAUAGCGCCAACGUUCUCAACUAUGACACCCAAAACGCGUGCUCCGUAGAAUGGAGUUUAUCAUG [C51U G84A G117C U135A]
The “polymerase ribozyme fitness (log ratio)” value of the first is lower: at most -4.2 for the first, -0.541 for the second.

GGAUCUUCUCGAUCUAACAAAAAAGACAAAUCUGCCACAAAGCUUGAGAGUAUCUUCGGAUGCAGAGGCGGCAGCCUUCGGUGGCGCGAUAGCGCCAACAUUCUCAACUAUGACACGCAAAACGCGUGCUCCGUUGAAUGGAGUUUAUCAUG [C51U G100A] and GGAUCUUCUCGAUCUAACAAAAAAGACAAAUCUGCCACAAAGCUUGAGAGUAUCUUCGGAUGCACAGGCGGCAGCCUUCGGUGGCGCGAUAGUGGCAACGUUCUCAACUAUGACACGCUAAACGCGUGCUCCGUUGAAUGUAGUUUAUCAUG [C51U G65C C93U C95G A119U G141U] cannot be ordered by “polymerase ribozyme fitness (log ratio)” value: at most -4.2 for the first, at most -4.2 for the second.

Going from GGAUCUUCUCGAUCUAACAAAAAAGACAAAUCUGCCACAAAGCUUGAGAGUAUCUUCUGAUGCAGAGGCGGCAGCCGUCGGUGGCGCGAUAGCGCAAACGUUCUCAACUAUGACACGCAAAACGCGUGCUCCGUUGAAUGGAGUUUAUCAUG [C51U G58U U77G C96A] to GGAUCUUCUCGAUCUAACAAAAAAGACAAAUCUGCCACAAAGCUUGAGAGUAUCUUCGAAUGCAGAGGCGGCAGCCUUCGGUGGGGCGAUAGCGCCAACGUUCUCAACUAUGACACGCAAAACGCGUGCUCCGUUGUAUGGAGUUUAUCAUG [C51U G59A C85G A137U], the “polymerase ribozyme fitness (log ratio)” value falls from -4.18 to at most -4.2.

Going from GGAUCUUCUCGAUCUAACAAAAAAGACAAAUCUGCCACAAAGCUUGAGAGUAUCUUCGGAUGCAGAGGCGGCAGCCUUCGGUGGCGUGAUAGCGCCAACGUUCUCAACUAUGACACGCAAUACGCGUGCUCCGUUGAAUGGAGUUUAUCAUG [C51U C87U A121U] to GGAUCUUCUCGAUCUAACAAAAAAGACAAAUCUGCCACAAAGCUUGAGAGUAACUUCGGAUGCAGAGGCGGCAGCCUUCGGUGGCGCGAUAGCGCCAACGUUCUCAACUCUGACAAGCAAAACGCGUGCUCCGUUGAAUGGAGUUUAUCAUG [C51U U53A A110C C116A], the “polymerase ribozyme fitness (log ratio)” value falls from -0.813 to at most -4.2.

Compared with GGAUCUUCUCGAUCUAACAAAAAAGACAAAUCUGCCACAAAGCUUGAGAGUAUCUUCGGAUGCAGAGGCGGCAGCCUUCGGUGGCGCGAUAACGCCAACGUUCUCAACUAUGACACGCAAAACGCGUGCUCCGUUGAAUGGAGUUUAUCAUG [C51U G92A], GGAUCUUCUCGAUCUAACAAAAAAGACAAAUCUGCCACAAAGCUUGAGAGUAUCUUCUGAUGCAGAGGCGGCAGCCUUCGGGGGCGCGAUAGCGCUAACGUUCUCAACUAUGACACGCAAAACGCGUGCUCCGUUGAAUGGAGUUUAUCAUG [C51U G58U U82G C96U] is higher in “polymerase ribozyme fitness (log ratio)” value: -3.5 for the first, -0.59 for the second.

GGAUCUUCUCGAUCUAACAAAAAAGACAAAUCUGCCACAAAGCUUGAGAGUAUCUUCGGAUGCAGAGGCGGCAGCCUUCGGUGUCGCGAUAGCGCCAACGUUGUCAACUUUGACACGCAAAACGCGUCCUCCGUUGAAUGGAGUUUAUCAUG [C51U G84U C103G A110U G128C] and GGAUCUUCUCGAUCUAACAAAAAAGACAAAUCUGCCACAAAGCUUGAGAGUAUCUUCGGAUGCAGAGGCGGCAGCCUUCGGUGCCGCGAUAGCGCCAACGAUCUCCACUAUGACACGCACAACGAGUGCUCCGUGGAAUGGAGUUUAUCAUG [C51U G84C U101A A106C A120C C125A U135G] cannot be ordered by “polymerase ribozyme fitness (log ratio)” value: at most -4.2 for the first, at most -4.2 for the second.

For GGAUCUUCUCGAUCUAACAAAAAAGACAAAUCUGCCACAAAGCUUGAGAGUAUCUUCGGAUGCAGAGGCGGCAGCCUUCGGUGGCGCGAUAGCGCGAACGUUCUCAACUAUGACACGCAAAACGCGUGCUCAGUUGAAUGGAGUUUAUCAUG [C51U C96G C132A], the “polymerase ribozyme fitness (log ratio)” value was -3.26.
